Source: publication PMC4336329 (PLoS ONE, 2015)
Hit rate of the full screen: of about 310,000 compounds, about 2,200 (0.71%) showed an effect of 50% or more. Effects have a minus sign here. The list shows a part of the results.

target: human ether-à-go-go-related gene (hERG) potassium channel (human, UniProt Q12809); assay: primary screen, population patch clamp on CHO cells stably expressing hERG
Sequence (Q12809 whole entry, looked up): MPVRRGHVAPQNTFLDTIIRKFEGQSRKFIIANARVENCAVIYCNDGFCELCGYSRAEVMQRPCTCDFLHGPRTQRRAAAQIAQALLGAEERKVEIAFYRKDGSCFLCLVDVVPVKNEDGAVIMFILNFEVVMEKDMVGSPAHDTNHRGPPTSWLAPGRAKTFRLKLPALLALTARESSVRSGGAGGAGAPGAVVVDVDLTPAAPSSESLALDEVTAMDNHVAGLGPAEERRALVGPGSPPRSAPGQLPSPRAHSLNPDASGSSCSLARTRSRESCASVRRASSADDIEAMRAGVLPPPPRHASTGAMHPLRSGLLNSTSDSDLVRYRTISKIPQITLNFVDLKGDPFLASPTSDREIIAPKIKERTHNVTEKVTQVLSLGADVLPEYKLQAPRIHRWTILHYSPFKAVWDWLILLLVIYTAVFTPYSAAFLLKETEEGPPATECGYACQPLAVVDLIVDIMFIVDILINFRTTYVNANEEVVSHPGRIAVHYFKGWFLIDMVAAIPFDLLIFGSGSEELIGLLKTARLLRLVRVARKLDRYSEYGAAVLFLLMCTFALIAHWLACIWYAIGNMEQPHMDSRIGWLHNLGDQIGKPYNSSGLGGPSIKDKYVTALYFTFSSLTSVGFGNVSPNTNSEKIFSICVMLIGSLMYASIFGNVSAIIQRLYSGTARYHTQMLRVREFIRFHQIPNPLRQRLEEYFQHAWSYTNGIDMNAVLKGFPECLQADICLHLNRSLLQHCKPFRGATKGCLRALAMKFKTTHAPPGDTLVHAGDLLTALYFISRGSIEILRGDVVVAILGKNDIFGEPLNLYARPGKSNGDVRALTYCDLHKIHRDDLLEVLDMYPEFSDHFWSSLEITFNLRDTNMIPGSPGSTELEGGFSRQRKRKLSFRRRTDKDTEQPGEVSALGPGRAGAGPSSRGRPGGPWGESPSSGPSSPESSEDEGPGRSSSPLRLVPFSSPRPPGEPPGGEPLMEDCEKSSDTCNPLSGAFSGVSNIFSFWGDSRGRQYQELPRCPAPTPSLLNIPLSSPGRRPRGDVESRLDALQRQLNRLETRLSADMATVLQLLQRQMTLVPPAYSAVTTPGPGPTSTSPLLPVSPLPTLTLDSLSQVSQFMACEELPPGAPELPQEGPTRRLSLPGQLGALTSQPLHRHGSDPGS

SMILES | hERG current change (%, negative = inhibition) at 1uM
Nc1nnc(SCC(=O)Nc2ccc(S(=O)(=O)N3CCOCC3)cc2)s1 | -3.77%
O=[N+]([O-])c1ccccc1S(=O)(=O)NCCC1=CCCCC1 | 13%
CN(C)Cc1cnc2ccc(Cl)cn12 | -3.71%
O=c1c2ccccc2nnn1CSc1nc2sc3c(c2c(=O)n1CC1CCCO1)CCC3 (centres unmarked) | 5.04%
CCOCCCNCc1c(Cl)cccc1Cl | 7.62%
COc1ccc(NC(=O)CSCc2ccccc2C)cc1 | 10.5%
COc1cc(S(=O)(=O)NC2CCCCC2)ccc1F | 8.5%
CCC(C(=O)OCC(=O)c1ccc(OC)cc1OC)c1ccccc1 (centres unmarked) | 4.12%
CCOc1cc(/C=N/Nc2ncc(C)c(=O)[nH]2)ccc1O | 13.5%
CS(=O)(=O)c1ccc(C(=O)N(Cc2ccccc2)c2ccccc2)cc1 | 21.4%
CC(=O)C1=C(O)C(=O)N(c2ccccn2)C1c1ccc(Cl)cc1 (centres unmarked) | 23.9%
CC(=O)Nc1cccc(OCc2cnc(Cl)s2)c1 | 13.5%
CCOc1ccc(S(=O)(=O)NCCC(=O)NCC(C)(C)N2CCOCC2)cc1 | 11.5%
CN(C(=O)CSc1ncnc2sc3c(c12)CCC3)C1CCS(=O)(=O)C1 (centres unmarked) | 6.72%
O=C(c1ccc(S(=O)(=O)N2CCCC2)cc1)N1CCCc2ccccc21 | 5.56%
Cc1sc(-c2ccccn2)nc1OC(=O)c1ccc(Cl)c(Cl)c1 | 9.69%
COc1ccc(Cc2nn3c(-c4ccccc4OC)nnc3s2)cc1 | -16.6%
CCCOc1ccc(/C=C/C(=O)NC2CCCCC2)cc1OC | 12.6%
CC(=O)N1CCN(C(=S)c2ccc([N+](=O)[O-])cc2)CC1 | 5.81%
Cc1nc2ccccc2n1CC(O)Cn1c(C(F)(F)F)nc2ccccc21 (centres unmarked) | 11.8%
CCOC(=O)c1cnc2nc(C)nn2c1N | -8.31%
O=C(/C=C/c1ccc(Cl)cc1)c1ccc([N+](=O)[O-])o1 | 17.3%
O=C(CN1CCOCC1)NCCNS(=O)(=O)c1ccccc1 | 12.2%
CCN(CC)S(=O)(=O)c1ccc(C(=O)NCC(c2ccc(OC)cc2)N2CCOCC2)cc1 (centres unmarked) | 9.24%

SMILES | hERG current change (%, negative = inhibition) at 1uM
Nc1cc(Cl)ccc1N1CCCCC1 | 10.3%
C/C(=N\Nc1ccc2nncn2n1)c1ccco1 | 14.4%
O=C(COC(=O)c1ccco1)Nc1ccc2[nH]c(=O)[nH]c2c1 | 5.03%
Cc1nnc(NCc2cccc(Cl)c2)c2ccccc12 | 0.0332%
CCOC(=O)c1cc(NC(=O)c2cccnc2)cc(C(=O)OCC)c1 | 5.43%
COc1ccc(C(=O)N2CCN(C(=O)CC(C)C)CC2)cc1OC | 10.1%
Cc1ccc(/C=N/n2c(C)nnc2C)o1 | 9%
Cc1cnc(NC(=O)NCC2CCCC(CNC(=O)Nc3ncc(C)s3)C2)s1 (centres unmarked) | 17.6%
Cn1c(N)c(C(=O)CSc2ccccn2)c(=O)n(C)c1=O | 13.9%
Cc1cccc(/N=C/c2c(O)[nH]c3ccccc23)n1 | 5.89%
Cc1cc(Nc2nc3c(c(=O)n(C)c(=O)n3C)n2C)n(-c2ccc(Cl)cc2)n1 | 0.849%
CC(C)N1CCN(Cc2ccc3c(c2)Cc2ccccc2-3)CC1CCO (centres unmarked) | 2.3%
O=C(CN1C(=O)NC2(CCCC2)C1=O)OCCOc1ccccc1Cl | 6.21%
Brc1ccsc1-c1csc(-c2ccncc2)n1 | 16.1%
Oc1ccc(-c2nnc(-c3ccccc3)c(-c3ccccc3)n2)cc1 | 6.87%
CCOC(=O)c1c(N)n(CCCOC(=O)c2ccco2)c2nc3ccccc3nc12 | 9%
COc1ccc(-c2csc(NC(=O)COC(=O)Cc3ccccc3)n2)cc1OC | 16%
CN1CCC(N(C)Cc2cccnc2)CC1 | 2.12%
CC(=O)N1CCC(C(=O)N2CCN(S(=O)(=O)c3ccc(F)cc3)CC2)CC1 | -0.492%
O=C1CC(c2ccccc2)CC(O)=C1C=NCC1CCCO1 (centres unmarked) | 6.56%
Cn1nc(C(F)(F)F)c(CO)c1Sc1ccc(F)cc1 | 8.79%
CCCCOC(=O)C1=C(N)OC2=C(C(=O)CCC2)[C@]12C(=O)Nc1ccccc12 | 8.45%
Cc1ccc(Cn2ccc(NC(=O)c3noc4c3CCCC4)n2)cc1 | -2.04%
